In publication PMC9300923 (Frontiers in Pharmacology, 2022):
pKd: −log10 of the molar value.

How the values were obtained:
Test in all cases: biochemical
LLO (Listeriolysin O) = molecular target: T1, LLO (Listeriolysin O) (Listeria monocytogenes, UniProt P13128)
T1 construct: gene hly

PLY (Pneumolysin O) = PLY (Pneumolysin O) (Streptococcus pneumoniae, UniProt P0C2J9)
SLO (Streptolysin O) = SLO (Streptolysin O) (Streptococcus pyogenes, UniProt P0C0I3)

UniProt P0C2J9, sequence (P0C2J9 whole entry, looked up): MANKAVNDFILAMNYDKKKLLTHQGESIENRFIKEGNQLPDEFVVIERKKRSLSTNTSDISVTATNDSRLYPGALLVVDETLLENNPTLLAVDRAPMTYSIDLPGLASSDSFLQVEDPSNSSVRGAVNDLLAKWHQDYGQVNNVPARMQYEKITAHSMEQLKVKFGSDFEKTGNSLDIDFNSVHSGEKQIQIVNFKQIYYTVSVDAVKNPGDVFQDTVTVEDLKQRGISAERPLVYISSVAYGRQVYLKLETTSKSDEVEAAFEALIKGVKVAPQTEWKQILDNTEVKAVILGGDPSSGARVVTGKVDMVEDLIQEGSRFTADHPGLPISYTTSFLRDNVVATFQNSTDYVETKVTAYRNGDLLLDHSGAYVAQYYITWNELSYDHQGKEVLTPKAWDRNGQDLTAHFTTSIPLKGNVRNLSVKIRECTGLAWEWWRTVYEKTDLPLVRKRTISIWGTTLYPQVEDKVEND

Question: `O=c1cc(-c2ccc(O)c(O)c2)oc2cc(O)cc(O)c12` [Luteolin] was tested. Which pKd (LLO (Listeriolysin O)) did it give?
Answer: Its pKd is 6.36.

Question: What about the pKd (PLY (Pneumolysin O)) of the same compound?
Answer: The pKd was 6.21.

Question: What about the pKd (SLO (Streptolysin O)) of the same compound?
Answer: Its pKd is 6.43.
